Experimental findings from article PMC5103362 (Autophagy, 2016) are described below.

The chains behind the UniProt entries cited, without tags or fusion partners. Where a name states a change or a piece, a line headed by the entry shows the natural chain unless it says otherwise.
UniProt P22219: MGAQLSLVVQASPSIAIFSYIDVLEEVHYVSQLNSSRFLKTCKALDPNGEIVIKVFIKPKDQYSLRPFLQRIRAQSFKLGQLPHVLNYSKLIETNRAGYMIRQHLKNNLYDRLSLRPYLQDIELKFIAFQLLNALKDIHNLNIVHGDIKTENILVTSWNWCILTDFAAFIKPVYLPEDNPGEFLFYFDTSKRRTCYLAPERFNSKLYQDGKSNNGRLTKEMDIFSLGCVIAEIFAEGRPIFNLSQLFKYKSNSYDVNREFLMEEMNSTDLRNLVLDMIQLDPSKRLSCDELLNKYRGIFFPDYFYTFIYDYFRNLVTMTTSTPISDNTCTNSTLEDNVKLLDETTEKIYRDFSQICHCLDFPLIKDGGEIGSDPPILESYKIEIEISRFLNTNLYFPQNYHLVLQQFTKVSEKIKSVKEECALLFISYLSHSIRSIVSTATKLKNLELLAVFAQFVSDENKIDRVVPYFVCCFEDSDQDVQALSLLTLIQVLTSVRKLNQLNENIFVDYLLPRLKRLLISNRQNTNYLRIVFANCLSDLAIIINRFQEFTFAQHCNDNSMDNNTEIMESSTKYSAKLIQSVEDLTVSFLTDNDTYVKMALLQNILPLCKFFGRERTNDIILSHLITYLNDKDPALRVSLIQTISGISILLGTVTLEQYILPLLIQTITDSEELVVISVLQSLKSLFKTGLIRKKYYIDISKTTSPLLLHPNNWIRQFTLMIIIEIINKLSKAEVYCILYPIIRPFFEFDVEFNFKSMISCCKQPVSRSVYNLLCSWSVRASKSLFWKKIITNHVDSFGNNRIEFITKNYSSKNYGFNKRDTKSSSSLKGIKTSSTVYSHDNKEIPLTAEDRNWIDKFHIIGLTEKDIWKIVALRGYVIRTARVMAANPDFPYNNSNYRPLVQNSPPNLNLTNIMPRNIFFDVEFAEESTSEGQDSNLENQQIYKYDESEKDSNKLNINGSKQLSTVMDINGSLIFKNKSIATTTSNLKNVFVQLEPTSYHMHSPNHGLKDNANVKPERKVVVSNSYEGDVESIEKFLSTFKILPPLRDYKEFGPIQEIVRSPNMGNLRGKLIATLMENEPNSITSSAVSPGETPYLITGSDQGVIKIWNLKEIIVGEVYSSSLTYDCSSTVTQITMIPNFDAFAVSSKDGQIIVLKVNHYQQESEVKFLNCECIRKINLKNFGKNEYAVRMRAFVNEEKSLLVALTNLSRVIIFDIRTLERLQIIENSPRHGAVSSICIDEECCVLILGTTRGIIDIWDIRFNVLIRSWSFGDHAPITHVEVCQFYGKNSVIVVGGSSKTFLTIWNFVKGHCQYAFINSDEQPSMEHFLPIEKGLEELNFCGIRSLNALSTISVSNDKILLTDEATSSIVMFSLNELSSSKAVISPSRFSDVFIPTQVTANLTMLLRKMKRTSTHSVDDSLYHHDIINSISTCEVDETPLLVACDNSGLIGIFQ

For experiment [1], the target named is T1, GST-Atg38 (87 to 226) (S. cerevisiae) (UniProt Q05789).
T1 sequence: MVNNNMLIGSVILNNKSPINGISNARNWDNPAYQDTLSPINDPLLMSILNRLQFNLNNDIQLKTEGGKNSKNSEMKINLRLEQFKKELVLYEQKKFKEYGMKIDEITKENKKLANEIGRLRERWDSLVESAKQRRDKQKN
Briefly: condition: 1.78 μM complex I with 10-fold excess of GST fusion; pull-down; GST affinity isolation: GST fusions of Atg38 on glutathione Sepharose, purified yeast complex I at 1.78 µM with 10-fold excess of GST fusion; 50 mM Tris pH 8.8, 150 mM NaCl, 1 mM TCEP, on ice 90 min; stained gel; both purified.

For experiment [2], the target named is His6-NRBF2-MIT domain (residues 1 to 89) (human) (UniProt Q96F24). Briefly: SEC-MALS; NRBF2 MIT domain alone; 20 mM Tris pH 8.0, 200 mM NaCl, 0.5 mM TCEP; both purified. A general note: SEC sorts molecules by how far they enter the pores of the column.
The target in experiment [3] is Atg38 C terminusΔ (residues 123 to 226 deleted), recombinant (S. cerevisiae) (UniProt Q05789). Briefly: SEC-MALS; Atg38 full-length, MIT domain and deletion variants alone on S75 10/30; 20 mM Tris pH 7.9, 300 mM NaCl, 1 mM TCEP; both purified.
In experiment [4] the target is Atg38 MIT domain (residues 1 to 78) (S. cerevisiae) (UniProt Q05789). The description is as above.
Experiment [5] addresses Atg38 capΔ+stalkΔ (123 to 209 deleted), recombinant (S. cerevisiae) (UniProt Q05789). The experiment is described as above.
Experiment [6] has as its target T2, Atg38 stalkΔ (182 to 209 deleted), 3xFLAG (S. cerevisiae) (UniProt Q05789).
T2 sequence: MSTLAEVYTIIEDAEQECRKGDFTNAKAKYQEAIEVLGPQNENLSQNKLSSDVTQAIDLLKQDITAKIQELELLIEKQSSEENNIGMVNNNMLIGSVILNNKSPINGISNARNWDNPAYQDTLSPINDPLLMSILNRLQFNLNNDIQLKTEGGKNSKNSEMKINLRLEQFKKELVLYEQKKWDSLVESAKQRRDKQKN
Briefly: co-IP; yeast lysates after 4 h in SD(-N); anti-Flag M2 agarose IP of Atg38-3xFLAG variants, Atg38-ZZ detected with PAP; lysis buffer with 200 mM NaCl, 1% Triton X-100.

In experiment [7] the target is T3, Atg38 C terminusΔ (residues 123 to 226 deleted), 3xFLAG (S. cerevisiae) (UniProt Q05789).
T3 sequence: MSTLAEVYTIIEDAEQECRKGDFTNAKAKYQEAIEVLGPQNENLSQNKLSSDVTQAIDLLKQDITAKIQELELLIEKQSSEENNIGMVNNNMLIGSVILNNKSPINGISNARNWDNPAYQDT
Described as above.

For experiment [8], the target named is T4, Atg38 capΔ (123 to 181 deleted), 3xFLAG (S. cerevisiae) (UniProt Q05789).
T4 sequence: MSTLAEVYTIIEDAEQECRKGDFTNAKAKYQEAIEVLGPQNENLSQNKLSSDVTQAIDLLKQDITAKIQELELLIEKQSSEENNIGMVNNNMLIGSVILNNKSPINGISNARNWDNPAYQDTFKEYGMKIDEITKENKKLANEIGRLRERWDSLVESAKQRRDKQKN
Described as above.

For experiment [9], the target named is T5, Atg38 tailΔ (209 to 226 deleted), 3xFLAG (S. cerevisiae) (UniProt Q05789).
T5 sequence: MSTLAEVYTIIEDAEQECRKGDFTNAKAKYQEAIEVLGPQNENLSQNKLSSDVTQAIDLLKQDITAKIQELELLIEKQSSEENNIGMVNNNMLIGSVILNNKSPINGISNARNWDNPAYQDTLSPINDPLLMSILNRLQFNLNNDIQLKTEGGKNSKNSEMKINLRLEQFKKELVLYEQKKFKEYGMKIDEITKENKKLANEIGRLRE
The experiment is described as above.

Experiment [10] concerns the target T6, Atg38 full length, 3xFLAG (S. cerevisiae) (UniProt Q05789).
T6 sequence: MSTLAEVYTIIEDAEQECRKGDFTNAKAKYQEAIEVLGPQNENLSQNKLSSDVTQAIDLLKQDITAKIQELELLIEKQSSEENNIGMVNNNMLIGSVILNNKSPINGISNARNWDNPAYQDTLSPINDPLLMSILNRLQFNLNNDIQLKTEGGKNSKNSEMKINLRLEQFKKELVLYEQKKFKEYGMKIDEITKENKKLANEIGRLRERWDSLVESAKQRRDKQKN
The experiment is described as above.

Experiment [11] has as its target T7, Atg38 capΔ+stalkΔ (123 to 209 deleted), 3xFLAG (S. cerevisiae) (UniProt Q05789).
T7 sequence: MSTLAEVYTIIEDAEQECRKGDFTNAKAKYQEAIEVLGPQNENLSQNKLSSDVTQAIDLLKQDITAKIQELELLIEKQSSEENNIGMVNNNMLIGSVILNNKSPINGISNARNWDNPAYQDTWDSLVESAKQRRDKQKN
Described as above.

Experiment [12] concerns the target Atg38 stalkΔ+tailΔ (182 to 226 deleted), recombinant (S. cerevisiae) (UniProt Q05789). Briefly: SEC-MALS; Atg38 full-length, MIT domain and deletion variants alone on S75 10/30; 20 mM Tris pH 7.9, 300 mM NaCl, 1 mM TCEP; both purified.

These are yes or no findings as the source states them, for the method shown. For part of these data: In cells and extracts the contact can be indirect. Some entries that bind do so weakly or less than the wild type. For part of these data: Tags and fused reporters may be left off the sequences shown.

Consider “yeast complex I (Vps15-Vps34-Vps30-Atg14 heterotetramer) (from UniProt P22219 1-1454; P22543 1-875; Q02948 1-557; P38270 1-344)”, for which the binding result in experiment [1] is reported as “no binding”.

Consider “His6-NRBF2-MIT domain (residues 1 to 89) (from UniProt Q96F24 1-89) (domain or fragment)”, for which, in experiment [2], the binding entry is listed as “no binding”.

B1: Atg38 C terminusΔ (residues 123 to 226 deleted), recombinant (domain or fragment, UniProt Q05789 1-122)
chain: T3 sequence
Turning to B1, in [3], the binding entry was “no binding”.

B2: GST-Atg38 (1 to 78) (domain or fragment, S. cerevisiae, UniProt Q05789 1-78, looked up)
chain: MSTLAEVYTIIEDAEQECRKGDFTNAKAKYQEAIEVLGPQNENLSQNKLSSDVTQAIDLLKQDITAKIQELELLIEKQ
notes: Atg38, S. cerevisiae, MIT domain, residues 1 to 78; also called MIT domain alone; source: E. coli, purified (Glutathione Sepharose, eluted with glutathione); not shown: GST, N-terminal, kept
Regarding B2, the binding result in experiment [4] is given as “no binding”.

B3: Atg38 capΔ+stalkΔ (123 to 209 deleted), recombinant (protein, UniProt Q05789)
chain: T7 sequence
For B3, the binding result in [5] was “no binding”.

B4: Atg38, full-length (natural protein, S. cerevisiae, UniProt Q05789 1-226, looked up)
chain: T6 sequence
notes: also called purified Atg38; free Atg38; source: E. coli, purified (Glutathione Sepharose, TEV, HiTrap Q, S75); not shown: GST, N-terminal, cleaved
On to B4, for which the binding entry is “binds” in experiment [6]; “no binding” in [7]; “binds” in experiment [8]; “binds” in experiment [9]; “binds” in experiment [10]; “no binding” in experiment [11].

B5: Atg38 stalkΔ+tailΔ (182 to 226 deleted), recombinant (domain or fragment, UniProt Q05789 1-181)
chain: MSTLAEVYTIIEDAEQECRKGDFTNAKAKYQEAIEVLGPQNENLSQNKLSSDVTQAIDLLKQDITAKIQELELLIEKQSSEENNIGMVNNNMLIGSVILNNKSPINGISNARNWDNPAYQDTLSPINDPLLMSILNRLQFNLNNDIQLKTEGGKNSKNSEMKINLRLEQFKKELVLYEQKK
With B5, the binding entry in [12] is on record as “no binding”.
